Sequences and labels used below:
T1: UNK ZnF1-3 (human, UniProt Q9C0B0 31-174)
T1 sequence: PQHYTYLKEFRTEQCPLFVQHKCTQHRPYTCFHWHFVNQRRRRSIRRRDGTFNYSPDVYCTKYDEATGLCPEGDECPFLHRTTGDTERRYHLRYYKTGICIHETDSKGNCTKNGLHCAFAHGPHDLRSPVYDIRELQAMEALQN

B1: 84755613_84757368_2524_3pUTR_ENSMUSG00000026219_ENSMUST00000027421|mouse|control|control (ssRNA)
RNA: GGGAGUUCUACAGUCCGACGAUCUUGAUUUGCUGCAUAGAAUUAAAAUCAAUAGUAUAAACUCGUCCCAGAGUGGACAAGCUUAUCUCAUCCUCACCGACCUGAUGGGCUGCCUCAAUGAUCCGGCUGUCAAUCCUGUUAUAGCAACAGAGGAUUGAGCAUCA
B2: chr1:90180419:90180420:+_ENSG00000171488_ENST00000370454|hu_mus|motif|central (ssRNA)
RNA: GGGAGUUCUACAGUCCGACGAUCAGCCCGGCAGUCUCCCAGCUCGGGAGGGAGGACUUCAAAGUGAUUGCCUUUGAUGUCGGAGUAGGAAAGAAAUAGUAGAUUUCCAAUUUUUGGUGAAAGUACGGAGAGGCUGUUUUUCCCCAACAGAGGAUUGAGCAUCA
B3: chr6:86333760:86333761:-_ENSG00000135316_ENST00000355238|hu_hu|motif|central (ssRNA)
RNA: GGGAGUUCUACAGUCCGACGAUCUUCUUCAAGAAUCUGUUCCUUGGUUUUACUCUUAGGAAUAGAGCCCACAAAAAGCCGGUUGUUGGCAACUGAGAUGCAGACACCAAUAUGUUUUCCAGAACGAAUUUCAUGAUUAUUAUACAACAGAGGAUUGAGCAUCA
B4: chr9:56909451:56909452:+_ENSMUSG00000032290_ENSMUST00000034832|mus_mus|motif|central (ssRNA)
RNA: GGGAGUUCUACAGUCCGACGAUCCACAUACGUACACACACACACACACAGAAUGACAGAAAAGACUGGAAUACACGCCCGGUGUAUAAACGUGCUUGGCACUCGGGACAUUCUCUAGAAUAUGUAACUUGGUCAAGCUUUCUGCAACAGAGGAUUGAGCAUCA
B5: chr7:7679991:7679992:-_ENSG00000106399_ENST00000396682|hu_hu|hu_hu_hu_mus_False|1_1 (ssRNA)
RNA: GGGAGUUCUACAGUCCGACGAUCUGGGAUGAAUCUUUUCCAGCUUCCCCACGAAGCACACGGGCCGGUCGAUAUACUGUGGUAACAUGCUGGCGUUGACGCGCGCUUUGGGGAGCUGCAUUAUGUCCUCCAUGAUUAUGGUCCCAACAGAGGAUUGAGCAUCA
B6: 31463140_31463260_7784_3pUTR_ENSMUSG00000025609_ENSMUST00000026699|mouse|control|control (ssRNA)
RNA: GGGAGUUCUACAGUCCGACGAUCCACAUUUGCAGAUAUGAUUUACAAAGAUUCCUUUUUUUUUCUUUAAGAUUUAUUAUUAAAUCUAAGUACACUGUAGAUGUCUUCAGACACCCCAGAAGAGGGCAUCAGAUCUUAUUAUAGCAACAGAGGAUUGAGCAUCA

The other results are listed elsewhere or left out.

The target of the assay is T1, UNK ZnF1-3. The experiment in a line: nsRBNS (natural sequence RNA bind-n-seq); RBNS binding buffer (assumed for nsRBNS): 25 mM Tris pH 7.5, 150 mM KCl, 3 mM MgCl2, 0.01% Triton X-100, 500 ug/ml BSA, 20 U/ml SUPERase-In, 4 C; UNK is unkempt and MSI1 is Musashi-1; names of the RNAs are library labels; protein concentration not given here; high values mean tight binding.
Regarding B1, the binding signal worked out at 0.752 enrichment R.

B2 had a binding signal of 1.77 enrichment R.

The molecule B3 registered a binding signal of 1.07 enrichment R.

For the molecule B4, the binding signal came out at 1.07 enrichment R.

For the molecule B5, the binding signal turned out to be 0.47 enrichment R.

Molecule B6 displayed a binding signal of 0.894 enrichment R.
